# The supplement of paper PMC8728848
# Some of the results follow.
# B1: PX14367B-bvu-516-23-516 (Bacteroides vulgatus) (protein)
# chain: LDTIPTTYVDAGSVFGKTGDAEKVLNGGWNYLMETFNSYANPGYGAMLRANDAMGSDVVLNSKYGFRTHNEFSAIYGKGGTNTLSWLLAYRVINDCNGVLDNIDAAEGTQADRNRIKGQALALRGFLYLHLASCYSFAIDKDPDAVCAPIYTQSTDETIAAEGKPASSVSEVYAQSINDLEEALELIPETYVRDAKHKIDNEVVLGILSRACLYARQWEKAKTYSDKLLAKDNYLMTESEYKAGFNSVDNKEWIWGHAQTNDQSNASYQFHYLDTTTKGSYYYSFNVDPYFRDLFEDGDYRKEMLFWATDPGADVESAAYVWMRNSKFRFRDIENQLGDIVLMRVAEIYLINAEAKAHLNDPDAINKLNDLKTARGAKTIHTNLSQQDLLETIWLERRKELWGEGFSLIDIIRNQQTVVRNAYPEGPIDYIYTDENGQTHTLKKKTQGHRFFNFPDKSAFCPNSKYYLYRITDSEELANKNLYKDHPKLSIYTK
# Columns and labels:
# Assay in all cases: glycan array binding signal (z-score within array); higher = stronger binding
# Conditions in all cases: glycan notation: IUPAC condensed, linker removed
# [1] = target: Gal(b1-4)GlcNAc(b1-2)[Gal(b1-4)GlcNAc(b1-6)]Man(a1-6)[GlcNAc(b1-4)][Gal(b1-4)GlcNAc(b1-2)Man(a1-3)]Man(b1-4)GlcNAc(b1-4)GlcNAc
# Summary of the method: (§1)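 From the Consortium for Functional Glycomics database, 3228 arrays were curated, keeping only those whose protein sequence was available. Binding is given as a within-array Z-score averaged across arrays sharing a protein sequence and across linkers. Negative Z-scores can be read as non-binding.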
# [2] = target: Gal(b1-4)GlcNAc(b1-2)[Gal(b1-4)GlcNAc(b1-6)]Man(a1-6)[GlcNAc(b1-4)][Gal(b1-4)GlcNAc(b1-2)[Gal(b1-4)GlcNAc(b1-4)]Man(a1-3)]Man(b1-4)GlcNAc(b1-4)[Fuc(a1-6)]GlcNAc
# Summary of the method: as §1
# [3] = target: Gal(b1-4)GlcNAc(b1-3)Gal(b1-3)GalNAc
# Summary of the method: as §1
# [4] = target: Gal(b1-4)GlcNAc(b1-3)Gal(b1-3)GlcNAc
# Summary of the method: as §1
# [5] = target: Gal(b1-4)GlcNAc(b1-3)Gal(b1-4)Glc
# Summary of the method: as §1
# [6] = target: Gal(b1-4)GlcNAc(b1-3)Gal(b1-4)GlcNAc
# Summary of the method: as §1
# [7] = target: Gal(b1-4)GlcNAc(b1-3)Gal(b1-4)GlcNAc(b1-2)Man(a1-3)[Gal(b1-4)GlcNAc(b1-3)Gal(b1-4)GlcNAc(b1-2)Man(a1-6)]Man(b1-4)GlcNAc(b1-4)GlcNAc
# Summary of the method: as §1
# [8] = target: Gal(b1-4)GlcNAc(b1-3)Gal(b1-4)GlcNAc(b1-2)Man(a1-3)[Gal(b1-4)GlcNAc(b1-3)Gal(b1-4)GlcNAc(b1-2)Man(a1-6)]Man(b1-4)GlcNAc(b1-4)[Fuc(a1-6)]GlcNAc
# Summary of the method: as §1
# [9] = target: Gal(b1-4)GlcNAc(b1-3)Gal(b1-4)GlcNAc(b1-2)[Gal(b1-4)GlcNAc(b1-3)Gal(b1-4)GlcNAc(b1-6)]Man(a1-6)[Gal(b1-4)GlcNAc(b1-3)Gal(b1-4)GlcNAc(b1-2)Man(a1-3)]Man(b1-4)GlcNAc(b1-4)GlcNAc
# Summary of the method: as §1
# [10] = target: Gal(b1-4)GlcNAc(b1-3)Gal(b1-4)GlcNAc(b1-2)[Gal(b1-4)GlcNAc(b1-3)Gal(b1-4)GlcNAc(b1-6)]Man(a1-6)[Gal(b1-4)GlcNAc(b1-3)Gal(b1-4)GlcNAc(b1-2)Man(a1-3)]Man(b1-4)GlcNAc(b1-4)[Fuc(a1-6)]GlcNAc
# Summary of the method: as §1
# [11] = target: Gal(b1-4)GlcNAc(b1-3)Gal(b1-4)GlcNAc(b1-3)Gal(b1-4)GlcNAc
# Summary of the method: as §1
# [12] = target: Gal(b1-4)GlcNAc(b1-3)Gal(b1-4)GlcNAc(b1-3)Gal(b1-4)GlcNAc(b1-2)Man(a1-3)[Gal(b1-4)GlcNAc(b1-3)Gal(b1-4)GlcNAc(b1-3)Gal(b1-4)GlcNAc(b1-2)Man(a1-6)]Man(b1-4)GlcNAc(b1-4)GlcNAc
# Summary of the method: as §1
# [13] = target: Gal(b1-4)GlcNAc(b1-3)Gal(b1-4)GlcNAc(b1-3)Gal(b1-4)GlcNAc(b1-2)Man(a1-3)[Gal(b1-4)GlcNAc(b1-3)Gal(b1-4)GlcNAc(b1-3)Gal(b1-4)GlcNAc(b1-2)Man(a1-6)]Man(b1-4)GlcNAc(b1-4)[Fuc(a1-6)]GlcNAc
# Summary of the method: as §1
# [14] = target: Gal(b1-4)GlcNAc(b1-3)Gal(b1-4)GlcNAc(b1-3)Gal(b1-4)GlcNAc(b1-2)[Gal(b1-4)GlcNAc(b1-3)Gal(b1-4)GlcNAc(b1-3)Gal(b1-4)GlcNAc(b1-6)]Man(a1-6)[Gal(b1-4)GlcNAc(b1-3)Gal(b1-4)GlcNAc(b1-3)Gal(b1-4)GlcNAc(b1-2)Man(a1-3)]Man(b1-4)GlcNAc(b1-4)[Fuc(a1-6)]GlcNAc
# Summary of the method: as §1
# [15] = target: Gal(b1-4)GlcNAc(b1-3)Gal(b1-4)GlcNAc(b1-3)Gal(b1-4)GlcNAc(b1-3)Gal(b1-4)GlcNAc(b1-2)Man(a1-3)[Gal(b1-4)GlcNAc(b1-3)Gal(b1-4)GlcNAc(b1-3)Gal(b1-4)GlcNAc(b1-3)Gal(b1-4)GlcNAc(b1-2)Man(a1-6)]Man(b1-4)GlcNAc(b1-4)GlcNAc
# Summary of the method: as §1
# [16] = target: Gal(b1-4)GlcNAc(b1-3)Gal(b1-4)GlcNAc(b1-3)Gal(b1-4)GlcNAc(b1-3)Gal(b1-4)GlcNAc(b1-2)Man(a1-3)[Gal(b1-4)GlcNAc(b1-3)Gal(b1-4)GlcNAc(b1-3)Gal(b1-4)GlcNAc(b1-3)Gal(b1-4)GlcNAc(b1-2)Man(a1-6)]Man(b1-4)GlcNAc(b1-4)[Fuc(a1-6)]GlcNAc
# Summary of the method: as §1
# [17] = target: Gal(b1-4)GlcNAc(b1-3)Gal(b1-4)GlcNAc(b1-3)Gal(b1-4)GlcNAc(b1-3)Gal(b1-4)GlcNAc(b1-2)[Gal(b1-4)GlcNAc(b1-3)Gal(b1-4)GlcNAc(b1-3)Gal(b1-4)GlcNAc(b1-3)Gal(b1-4)GlcNAc(b1-6)]Man(a1-6)[Gal(b1-4)GlcNAc(b1-3)Gal(b1-4)GlcNAc(b1-3)Gal(b1-4)GlcNAc(b1-3)Gal(b1-4)GlcNAc(b1-2)Man(a1-3)]Man(b1-4)GlcNAc(b1-4)[Fuc(a1-6)]GlcNAc
# Summary of the method: as §1
# [18] = target: Gal(b1-4)GlcNAc(b1-3)Gal(b1-4)GlcNAc(b1-3)Gal(b1-4)GlcNAc(b1-3)Gal(b1-4)GlcNAc(b1-3)Gal(b1-4)GlcNAc(b1-2)Man(a1-3)[Gal(b1-4)GlcNAc(b1-3)Gal(b1-4)GlcNAc(b1-3)Gal(b1-4)GlcNAc(b1-3)Gal(b1-4)GlcNAc(b1-3)Gal(b1-4)GlcNAc(b1-2)Man(a1-6)]Man(b1-4)GlcNAc(b1-4)GlcNAc
# Summary of the method: as §1
# [19] = target: Gal(b1-4)GlcNAc(b1-3)Gal(b1-4)GlcNAc(b1-3)Gal(b1-4)GlcNAc(b1-3)Gal(b1-4)GlcNAc(b1-3)Gal(b1-4)GlcNAc(b1-2)Man(a1-3)[Gal(b1-4)GlcNAc(b1-3)Gal(b1-4)GlcNAc(b1-3)Gal(b1-4)GlcNAc(b1-3)Gal(b1-4)GlcNAc(b1-3)Gal(b1-4)GlcNAc(b1-2)Man(a1-6)]Man(b1-4)GlcNAc(b1-4)[Fuc(a1-6)]GlcNAc
# Summary of the method: as §1
# [20] = target: Gal(b1-4)GlcNAc(b1-3)Gal(b1-4)GlcNAc(b1-3)Gal(b1-4)GlcNAc(b1-3)Gal(b1-4)GlcNAc(b1-3)Gal(b1-4)GlcNAc(b1-2)[Gal(b1-4)GlcNAc(b1-3)Gal(b1-4)GlcNAc(b1-3)Gal(b1-4)GlcNAc(b1-3)Gal(b1-4)GlcNAc(b1-3)Gal(b1-4)GlcNAc(b1-6)]Man(a1-6)[Gal(b1-4)GlcNAc(b1-3)Gal(b1-4)GlcNAc(b1-3)Gal(b1-4)GlcNAc(b1-3)Gal(b1-4)GlcNAc(b1-3)Gal(b1-4)GlcNAc(b1-2)Man(a1-3)]Man(b1-4)GlcNAc(b1-4)[Fuc(a1-6)]GlcNAc
# Summary of the method: as §1
# [21] = target: Gal(b1-4)GlcNAc(b1-3)Gal(b1-4)GlcNAc(b1-3)Gal(b1-4)GlcNAc(b1-3)Gal(b1-4)GlcNAc(b1-3)Gal(b1-4)GlcNAc(b1-3)Gal(b1-4)GlcNAc(b1-2)Man(a1-3)[Gal(b1-4)GlcNAc(b1-3)Gal(b1-4)GlcNAc(b1-3)Gal(b1-4)GlcNAc(b1-3)Gal(b1-4)GlcNAc(b1-3)Gal(b1-4)GlcNAc(b1-3)Gal(b1-4)GlcNAc(b1-2)Man(a1-6)]Man(b1-4)GlcNAc(b1-4)GlcNAc
# Summary of the method: as §1
# [22] = target: Gal(b1-4)GlcNAc(b1-3)Gal(b1-4)GlcNAc(b1-3)GalNAc
# Summary of the method: as §1
# [23] = target: Gal(b1-4)GlcNAc(b1-3)Gal(b1-4)GlcNAc(b1-3)[Gal(b1-4)GlcNAc(b1-3)Gal(b1-4)GlcNAc(b1-6)]GalNAc
# Summary of the method: as §1
# [24] = target: Gal(b1-4)GlcNAc(b1-3)Gal(b1-4)GlcNAc(b1-6)[Gal(b1-3)]GalNAc
# Summary of the method: as §1
# [25] = target: Gal(b1-4)GlcNAc(b1-3)Gal(b1-4)[Fuc(a1-3)]GlcNAc(b1-3)Gal(b1-4)[Fuc(a1-3)]GlcNAc
# Summary of the method: as §1
# [26] = target: Gal(b1-4)GlcNAc(b1-3)GalNAc
# Summary of the method: as §1
# [27] = target: Gal(b1-4)GlcNAc(b1-3)[Fuc(a1-3)GlcNAc(b1-6)]Gal(b1-4)Glc
# Summary of the method: as §1
# [28] = target: Gal(b1-4)GlcNAc(b1-3)[Gal(b1-4)GlcNAc(b1-6)]Gal(b1-4)GlcNAc
# Summary of the method: as §1
# [29] = target: Gal(b1-4)GlcNAc(b1-3)[GlcNAc(b1-6)]Gal(b1-4)GlcNAc
# Summary of the method: as §1
# [30] = target: Gal(b1-4)GlcNAc(b1-6)Gal(b1-4)GlcNAc
# Summary of the method: as §1
# [31] = target: Gal(b1-4)GlcNAc(b1-6)GalNAc
# Summary of the method: as §1
# [32] = target: Gal(b1-4)GlcNAc(b1-6)[Gal(b1-3)]GalNAc
# Summary of the method: as §1
# [33] = target: Gal(b1-4)GlcNAc(b1-6)[Gal(b1-4)GlcNAc(b1-3)]GalNAc
# Summary of the method: as §1
# Gal(b1-4)GlcNAc6P = target: Gal(b1-4)GlcNAc6P
# Summary of the method: as §1
# Gal(b1-6)Gal = target: Gal(b1-6)Gal
# Summary of the method: as §1
# Gal3S(b1-3)GalNAc = target: Gal3S(b1-3)GalNAc
# Summary of the method: as §1
# Gal3S(b1-3)GlcNAc = target: Gal3S(b1-3)GlcNAc
# Summary of the method: as §1
# [34] = target: Gal3S(b1-3)[Fuc(a1-4)]GlcNAc
# Summary of the method: as §1
binder,measurement,setting,value
B1,glycan array binding signal (z-score),[1],1.51
same,glycan array binding signal (z-score),[2],-0.287
same,glycan array binding signal (z-score),[3],-0.357
same,glycan array binding signal (z-score),[4],0.381
same,glycan array binding signal (z-score),[5],-0.243
same,glycan array binding signal (z-score),[6],-0.337
same,glycan array binding signal (z-score),[7],-0.115
same,glycan array binding signal (z-score),[8],0.011
same,glycan array binding signal (z-score),[9],0.488
same,glycan array binding signal (z-score),[10],0.037
same,glycan array binding signal (z-score),[11],-0.311
same,glycan array binding signal (z-score),[12],0.186
same,glycan array binding signal (z-score),[13],2.6
same,glycan array binding signal (z-score),[14],7.91
same,glycan array binding signal (z-score),[15],0.812
same,glycan array binding signal (z-score),[16],0.567
same,glycan array binding signal (z-score),[17],0.603
same,glycan array binding signal (z-score),[18],0.433
same,glycan array binding signal (z-score),[19],0.122
same,glycan array binding signal (z-score),[20],3.48
same,glycan array binding signal (z-score),[21],7.87
same,glycan array binding signal (z-score),[22],-0.231
same,glycan array binding signal (z-score),[23],-0.24
same,glycan array binding signal (z-score),[24],-0.301
same,glycan array binding signal (z-score),[25],-0.179
same,glycan array binding signal (z-score),[26],-0.331
same,glycan array binding signal (z-score),[27],-0.274
same,glycan array binding signal (z-score),[28],0.179
same,glycan array binding signal (z-score),[29],-0.364
same,glycan array binding signal (z-score),[30],-0.274
same,glycan array binding signal (z-score),[31],-0.125
same,glycan array binding signal (z-score),[32],-0.273
same,glycan array binding signal (z-score),[33],-0.204
same,glycan array binding signal (z-score),Gal(b1-4)GlcNAc6P,-0.365
same,glycan array binding signal (z-score),Gal(b1-6)Gal,-0.211
same,glycan array binding signal (z-score),Gal3S(b1-3)GalNAc,-0.332
same,glycan array binding signal (z-score),Gal3S(b1-3)GlcNAc,-0.279
same,glycan array binding signal (z-score),[34],-0.317
